In all, about 110,000 compounds were measured (“z-score”: median about -0.1, highest 2% from about 2 on). Some of the results follow. Activity calls are given as the source filed them.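 The calls were made as follows: active = z-score in the third read window above 3 or below -3; inactive = the rest.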
What follows are compounds tested against Metabotropic glutamate receptor 8 (Rattus norvegicus) (UniProt P70579) (assay: rat mGluR8 modulators via GIRK flux, primary screen, cell-based, thallium flux, HTS (AID 488969)). Settings: HEK293 rat mGluR8, GIRK (G protein-gated inwardly rectifying potassium channel) thallium flux, FluoZin2; at 10 µM; stronger effect = higher value; submaximal glutamate (EC20) added with thallium.
UniProt P70579, sequence (P70579 whole entry, looked up): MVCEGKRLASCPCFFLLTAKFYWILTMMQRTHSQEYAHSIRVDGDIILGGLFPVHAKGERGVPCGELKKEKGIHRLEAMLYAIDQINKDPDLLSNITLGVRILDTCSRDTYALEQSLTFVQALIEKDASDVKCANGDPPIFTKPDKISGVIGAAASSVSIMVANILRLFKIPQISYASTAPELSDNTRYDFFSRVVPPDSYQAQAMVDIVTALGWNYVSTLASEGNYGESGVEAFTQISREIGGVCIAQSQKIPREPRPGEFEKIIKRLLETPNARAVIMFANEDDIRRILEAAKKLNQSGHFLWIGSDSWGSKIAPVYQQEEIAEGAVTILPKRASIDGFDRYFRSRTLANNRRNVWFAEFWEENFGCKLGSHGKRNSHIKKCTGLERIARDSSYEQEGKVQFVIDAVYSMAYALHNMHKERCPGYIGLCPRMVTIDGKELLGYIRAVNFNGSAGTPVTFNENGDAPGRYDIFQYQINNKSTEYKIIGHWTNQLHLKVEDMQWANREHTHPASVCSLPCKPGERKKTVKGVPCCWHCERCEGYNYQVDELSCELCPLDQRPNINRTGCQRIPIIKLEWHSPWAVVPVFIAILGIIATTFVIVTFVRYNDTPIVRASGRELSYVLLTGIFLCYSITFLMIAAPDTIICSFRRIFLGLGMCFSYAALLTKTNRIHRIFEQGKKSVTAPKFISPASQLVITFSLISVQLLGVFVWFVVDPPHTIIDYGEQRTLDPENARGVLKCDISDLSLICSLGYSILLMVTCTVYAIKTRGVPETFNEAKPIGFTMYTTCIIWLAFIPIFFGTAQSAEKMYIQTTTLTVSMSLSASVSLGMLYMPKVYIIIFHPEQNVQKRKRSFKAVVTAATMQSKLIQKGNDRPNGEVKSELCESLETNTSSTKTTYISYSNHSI

Row | SMILES | z-score
1 | Cn1c2ccccc2c2c(C(=O)N3CCN(c4ccccc4)CC3)cn(C3CCCC3)c(=O)c21 | -0.462
2 | COc1ccccc1CNCC(=O)Nc1ccc(N2CCOCC2)cc1 | -0.233
3 | CCn1c(SCC(=O)NCC2CCCO2)nnc1-c1ccccc1 (stereo not drawn) | -0.0704
4 | CC(C)c1nccn1S(=O)(=O)c1cc(Cl)ccc1Cl | -0.163
5 | CC(=O)Nc1nnc(SCc2ccc(F)cc2)s1 | -0.167
6 | CC1=C(C(=O)OCc2ccccc2)C(c2cccnc2)n2ncnc2N1 (stereo not drawn) | -0.355
7 | Cc1cccc(C)c1OCc1nnc(SCC(=O)NCCc2ccccc2)o1 | -0.0648
8 | CCOc1ccc(/C(O)=C2/C(=O)C(=O)N(CC3CCCO3)C2c2ccco2)cc1 (stereo not drawn) | -0.17
9 | COc1ccc(CN2CCn3ncc(C(=O)Nc4cc(C)cc(C)c4)c3C2=O)cc1 | -0.164
10 | Cc1ccsc1C(=O)N/N=C/C=C/c1ccccc1[N+](=O)[O-] | -0.106
11 | CCN(CC(=O)Nc1ccc2c(c1)OCCO2)S(=O)(=O)c1ccc(C)cc1 | -0.159
12 | CC(C)COc1ccc(CN=C(N)N=C(N)N)cc1Cl | 0.407
13 | O=C1N2CCSC2=NC1(Nc1nccs1)C(F)(F)F (stereo not drawn) | -0.385
14 | COc1ccc(CCCc2nnc(SCC(=O)N/N=C\c3ccc(O)c(OC)c3)o2)cc1C | -0.173
15 | COc1cc(/C=C(/C#N)C(=O)Nc2ccc(C)cc2)ccc1Oc1nc(Cl)ncc1F | -0.0861
16 | CC(C)[C@@H]1CC[C@@H](C)c2c(-c3ccccc3)n[nH]c21 | -0.123
17 | COc1ccccc1C(=O)Nc1ccc(S(=O)(=O)N2CCCC2)cc1 | 1.5
18 | CC(NC(=O)CN1CCCC1)C12CC3CC(CC(C3)C1)C2 (stereo not drawn) | 0.259
19 | Cc1ccc(N(C(C)C(=O)Nc2ccc(S(=O)(=O)N3CCOCC3)cc2)S(C)(=O)=O)cc1C (stereo not drawn) | 0.173
20 | Cc1nnc(Cl)c2nn(-c3ccccc3)c(C)c12 | -0.154
21 | COc1ccc2nc(N3CCC(O)CC3)c(C#N)cc2c1 | 0.0837
22 | O=C(CN1CCN(c2ccc(F)cc2)CC1)N1CCC(Cc2ccccc2)CC1 | -0.162

Row | SMILES | z-score
23 | O=C(O)c1[nH]c2ccccc2c1-c1ccccc1 | -0.254
24 | CS(=O)(=O)N1CCN(c2ccc(NC(=O)c3ccc(-c4ccc(Cl)cc4)o3)cc2)CC1 | 0.22
25 | Cc1ccn(S(=O)(=O)c2ccc(C(C)(C)C)cc2)n1 | -0.368
26 | CCc1ccc(/C=N/Nc2nn[nH]n2)cc1 | -0.456
27 | Cc1ccc(C(=O)NCC(=O)OCC(=O)c2c(N)n(C)c(=O)n(C)c2=O)s1 | 0.459
28 | CCOC(=O)c1ccc(N2C(=O)CC(C(=O)OC)=C2C)cc1 | -0.0579
29 | CCN(CC(=O)Nc1ccccc1OC)C(=O)Cn1cnc2ccccc2c1=O | -0.0954
30 | O=Nc1c2nc3ccccc3n(O)c-2c2ccccc12 | 1.16
31 | CCC(=O)Nc1nnc(SCCN2CCOCC2)s1 | 0.112
32 | O=C(Nc1ccc(CN2CCCCC2)cc1)c1cccc(Br)c1 | -0.404
33 | COc1cccc(C2NC(CCSC)(C(=O)O)C3C(=O)N(C(C)C)C(=O)C23)c1O (stereo not drawn) | -0.143
34 | COc1ccc(OC)c(NC(=O)C2CCN(c3cc(-c4ccccc4)nc4ncnn34)CC2)c1 | -0.764
35 | COC(=O)CSc1nnc(-c2sc3cc(OC)ccc3c2Cl)n1C | -1.34
36 | O=C(NC(=S)NCC1CCCO1)C(c1ccccc1)c1ccccc1 (stereo not drawn) | -0.0494
37 | CCCc1[nH][nH]c(=O)c1C(c1cccc(Cl)c1)C(C#N)C#N (stereo not drawn) | -0.852
38 | O=C(Nc1cnc2ccccc2c1)c1cccc(-n2cnnn2)c1 | -0.963
39 | CCCCC(=O)Nc1ccc(C(=O)Nc2ccc3c(c2)OCO3)cc1 | -0.0978
40 | CC(C)(C)c1ccc(S(=O)(=O)NCCOCC(F)(F)C(F)F)cc1 | 0.431
41 | Cc1ccc(O)c(C2=NCCNC(C(F)(F)C(F)F)=C2)c1 | -0.0269
42 | CCCNS(=O)(=O)c1ccc(CCC(=O)NCc2ccc3c(c2)OCO3)cc1 | 0.303
43 | Cn1c(SCC(=O)NCc2ccco2)nnc1-c1cccs1 | -0.331
44 | CC1(C)C2CCC1(CS(=O)(=O)Nc1ccc(S(=O)(=O)N3CCCC3)cc1)C(=O)C2 (stereo not drawn) | -0.23

Row | SMILES | z-score
45 | COc1ccc(Nc2nnc(SCc3cn4c(C)cccc4n3)s2)cc1 | -0.206
46 | Cc1nc2ccc(F)cc2cc1C(=O)NC(C)C | -0.436
47 | COCCn1c(C)cc(C(=O)CSc2cc(C)c3ccc(OC)cc3n2)c1C | -0.282
48 | O=C(CN1CCN(Cc2ccccc2)C1=O)NCCCN1CCOCC1 | -0.108
49 | CCN1CCC2(CC1)N=C(c1ccc(F)cc1)C(=S)N2C(=O)c1ccc(C)cc1 | -0.201
50 | Cc1noc(C)c1C(=O)N1CCN(Cc2ccc3c(c2)OCO3)CC1 | -0.171
51 | CCCCC(=O)Nc1ccc(C(=O)NNC(=O)c2cccs2)cc1 | -0.305
52 | CCN(CC)S(=O)(=O)c1ccc(Cl)c(NC(=O)COc2ccccc2[N+](=O)[O-])c1 | -0.253
53 | O=C(O)c1cc(NCc2cccs2)ccc1N1CCOCC1 | 0.0293
54 | COc1ccc(S(=O)(=O)Nc2ccccn2)c(C)c1C | 0.0834
55 | COc1ccc(CNC(N)=O)cc1OC | 0.171
56 | Cc1cccn2c(=O)c3cc(C(=O)NCc4ccco4)c(=N)n(C(C)C)c3nc12 | -0.837
57 | CCOC(=O)C1CCN(C(=O)CN(Cc2ccc(Cl)cc2)S(C)(=O)=O)CC1 | -0.21
58 | Cc1cc(C)c2oc(C(=O)Nc3ccc(S(=O)(=O)N4CCCC(C)C4)cc3)cc(=O)c2c1 (stereo not drawn) | 0.226
59 | COCCN(Cc1cc2cc3c(cc2nc1Cl)OCO3)C(=O)Nc1ccccc1OC | 1.64
60 | COc1ccc(-c2c(C)n([O-])c(C)c(C)[n+]2=O)cc1 | -1.27
61 | Cc1ccn2cc(-c3ccc(NC(=O)c4ccco4)cc3)nc2c1 | -0.263
62 | CCOC(=O)C1CCCN(CC(O)COc2ccccc2C(C)=O)C1 (stereo not drawn) | 0.357
63 | CCCC(=O)Nc1ccc2oc(-c3cccnc3)nc2c1 | -0.502
64 | O=C1C2C3C=CC(C2C(=O)N1CCCO)C1C2C(=O)N(CCCO)C(=O)C2C31 (stereo not drawn) | 0.343
65 | Cc1ccccc1OCC(=O)O/N=C(\N)Cc1cccs1 | active: 3.93
66 | Cc1cc(C)cc(OCC(=O)NNC(=O)c2cc(C)[nH]n2)c1 | -0.069

Row | SMILES | z-score
67 | C=CCN=c1scc(-c2ccc(F)cc2)n1/N=C/c1ccccn1 | 0.191
68 | COc1ccc(NC(=O)c2ccc(COc3ccccc3Br)o2)cc1OC | -0.964
69 | CC(C)OC(=O)CSc1nnc(-c2cnccn2)n1Cc1ccco1 | -0.0197
70 | COc1ccc(C(C(=O)NC2CCCCC2)N(C(=O)c2cccs2)c2ccc3c(c2)OCO3)cc1 (stereo not drawn) | -0.837
71 | O=C(NCCCN1CCCC1)C1CCC(=O)N1C1CCCCC1 (stereo not drawn) | -0.198
72 | CC(=O)NC(=S)Nc1ccccc1C(=O)NC1CCCCC1 | -0.0609
73 | COc1ccc(Br)cc1C1Nc2ccccc2C(=O)N1NC(=O)c1ccncc1 (stereo not drawn) | 0.804
74 | Cc1ccc(C(=O)NNC(=S)NC(=O)c2ccc(Cl)cc2Cl)cc1 | 2.02
75 | O=C(O)CCC(=O)CCC(=O)c1ccc(Cl)cc1 | -0.186
76 | CCOc1ccc(CCNC(=O)CN(C)S(=O)(=O)c2cccc3nsnc23)cc1OCC | -0.519
77 | Cc1ccccc1C(=O)NCc1nnc(SCC(=O)N2c3ccccc3Sc3ccccc32)n1C | -0.398
78 | Cc1ccc(NC(=O)Nc2nc(-c3ccc(C)s3)cs2)cc1 | 0.0677
79 | O=C(CCS(=O)(=O)c1ccccc1)Nc1ccccc1-c1nc2ccccc2s1 | -1.9
80 | O=C(c1ccco1)N1CCN(C(=O)C(Cc2ccccc2)NS(=O)(=O)c2cccs2)CC1 (stereo not drawn) | -0.548
81 | CC(=O)Nc1nc(COc2ccc3ccccc3c2)cs1 | 0.202
82 | Cc1ccccc1Nc1nc(N)nc(CN2CCN(c3ccccn3)CC2)n1 | -0.285
83 | CCCN(CCC)C(=O)Cn1c(=O)n(CCC(=O)NCCc2ccccc2)c(=O)c2ccccc21 | -0.114
84 | NC(=O)C1CCN(c2ncnc3c2c(-c2ccccc2)cn3-c2ccccc2)CC1 | 0.722
85 | CCOC(=O)c1[nH]c(C)c(/C(O)=C2\C(=O)C(=O)N(CCCN(C)C)C2c2cccnc2)c1C (stereo not drawn) | -0.333
86 | Cc1c(C(=O)NCc2ccccn2)sc2nc(-c3ccc(F)cc3)cn12 | -1.64
87 | O=C1CC(c2ccc(F)cc2)Sc2nc(C34CC5CC(CC(C5)C3)C4)nn21 (stereo not drawn) | 0.295
88 | N=C1S/C(=C\c2cn[nH]c2-c2ccc(F)cc2)C(=O)N1c1ccccc1F | 0.348

Row | SMILES | z-score
89 | O=S(=O)(N1CCOCC1)N1CCCN(S(=O)(=O)N2CCOCC2)CC1 | 0.611
90 | Cc1nc2ccccc2n2c(-c3ccccc3)c3c(=O)n(C)c(=O)n(C)c3c12 | -0.404
91 | C=CCn1c(SCC(=O)NCCC2=CCCCC2)nc2ccc(Cl)cc2c1=O | -0.151
92 | COc1cccc(NC(=O)COc2ccc(S(=O)(=O)NC(C)C)cc2)c1 | -0.282
93 | CC1CCCCN1C(=O)CSc1nc(N)cc(=O)[nH]1 (stereo not drawn) | -0.295
94 | O=C(Nc1ccc2c(c1)OCO2)C1CC(c2c(F)cccc2Cl)=NO1 (stereo not drawn) | 0.133
95 | CCCCNC(=O)c1ccc(CS(=O)(=O)c2cccc(C(F)(F)F)c2)o1 | 0.492
96 | CC(C)C(=O)Nc1c(-c2cccs2)c(=O)c2ccccc2n1C | -0.252
97 | C=CCC1c2cccc(C(=O)O)c2C(=O)N1c1cccc(C)c1 (stereo not drawn) | 0.209
98 | CC(C)(C)OC(=O)N1CCN(c2ccc(NC(=O)Cn3nnc(-c4ccccc4)n3)cc2)CC1 | 0.018
99 | Cc1ccc(S(=O)(=O)NC2=NCN(C3CCCCC3)CN2)cc1 | -0.47
100 | Cc1ccc(N(C(C)C(=O)O)S(=O)(=O)c2cccnc2)cc1 (stereo not drawn) | 0.309
101 | CN(C)CCn1c(=O)n(Cc2ccco2)c(=O)c2c3c(sc21)CCCCC3 | 1.12
102 | CC[n+]1c(/C=C(\C)SC)sc2ccccc21 | 0.00206
103 | Cc1sc(NC(=O)c2ccccc2)c(C(=O)NCCN(C)C)c1C | 0.0559
104 | O=C(CSc1nnc(-c2ccncc2)n1-c1ccccc1)N1CCN(c2ccc(Cl)cc2)CC1 | 0.253
105 | CCOc1ccc(S(=O)(=O)N(CC(=O)O)c2ccccc2)cc1 | 0.618
106 | COc1cc(NC(=O)CCN2CCN(Cc3ccccc3)CC2)cc(OC)c1 | -0.499
107 | Cc1ccc(NC(=O)CSc2nnc(-c3ccccc3Br)o2)cc1C | -0.395
108 | COc1ccc(S(=O)(=O)Nc2nc3n(n2)C(c2ccc(Cl)cc2)CC(=O)N3)cc1 (stereo not drawn) | -0.178

From PubChem BioAssay AID488969 (Vanderbilt High Throughput Screening Facility, 2010)
